# Source: patent US20070212426A1, “Composition and method of retarding viral activity and reducing viral replication” (priority 2006, published 2007)
# System: Influenza Virus A's Neuraminidase
# Assay: Neuraminidase activity of cell-free virus, 4-methylumbelliferyl N-acetylneuramic acid substrate
# Conditions: various concentrations
compound,measurement,value
O=C1O[C@H]([C@@H](O)CO)C(O)=C1O [ascorbic acid],effect on Influenza Virus A's Neuraminidase Activity (figure legend),non-retardation effect
